From the supplement of paper PMC3334620
In all, about 33,000 sequences were measured (“E-score (-0.5 to 0.5)”: median about -0.011, highest 2% from about 0.28 on). Some of the results follow.

molecular target: T1, Gcr1 (UniProt P07261); experiment: PBM E-score (8-mer binding enrichment) (E-score (-0.5 to 0.5)); higher = stronger / more preferred TF binding; most listed sequences are background and not binding sites; conditions: protein concentration: 100 nM; construct: GST-full length
T1 sequence: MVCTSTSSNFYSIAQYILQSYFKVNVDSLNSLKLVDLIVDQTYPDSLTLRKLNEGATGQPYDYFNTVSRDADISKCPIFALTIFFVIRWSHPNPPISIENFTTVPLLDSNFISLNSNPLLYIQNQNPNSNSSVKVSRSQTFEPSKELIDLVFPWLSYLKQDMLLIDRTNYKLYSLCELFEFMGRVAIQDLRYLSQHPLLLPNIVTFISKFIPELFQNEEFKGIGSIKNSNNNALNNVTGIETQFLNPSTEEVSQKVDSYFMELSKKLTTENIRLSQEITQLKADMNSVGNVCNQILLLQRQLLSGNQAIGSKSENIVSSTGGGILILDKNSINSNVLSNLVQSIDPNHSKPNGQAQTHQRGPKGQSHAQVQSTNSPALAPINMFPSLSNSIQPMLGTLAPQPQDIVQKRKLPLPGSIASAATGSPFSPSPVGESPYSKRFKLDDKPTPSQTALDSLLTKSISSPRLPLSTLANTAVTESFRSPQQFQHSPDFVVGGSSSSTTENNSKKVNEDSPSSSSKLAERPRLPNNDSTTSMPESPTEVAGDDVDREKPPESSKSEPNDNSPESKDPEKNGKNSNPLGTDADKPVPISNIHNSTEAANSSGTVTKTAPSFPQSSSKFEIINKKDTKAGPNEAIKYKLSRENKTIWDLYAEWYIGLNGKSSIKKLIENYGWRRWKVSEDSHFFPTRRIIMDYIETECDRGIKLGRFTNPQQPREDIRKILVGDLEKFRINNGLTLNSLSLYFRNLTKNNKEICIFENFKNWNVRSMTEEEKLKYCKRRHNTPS
Method in brief: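 Masliner-normalised scans of fluorescent anti-GST signal were the basis for scoring. That signal came from GST-tagged yeast transcription factors applied at about 100-200 nM to double-stranded universal all-10-mer Agilent arrays on fresh or once-stripped slides. Each ungapped eight-base word, pooled with its reverse complement, received an E-score from the Universal PBM Analysis Suite.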

Sequence | PBM E-score
CGGTTACC | 0.0927
ACACGCGT | 0.138
AAATGACC | -0.0753
AAAACTTT | -0.0798
CACTGGTC | -0.0838
AACGGCCA | -0.0219
ATATTAAG | 0.178
GCAACGCC | 0.0857
GGCGGGGA | 0.304
ACAGTGGT | 0.0442
CCGATCTA | -0.0326
ATCCTTTC | -0.0852
GGCCTAAA | -0.143
ACTGTCGA | -0.0903
GACGTCGA | -0.0213
ACAGACAG | 0.173
ACCAGTGG | 0.0644
GAATGCCA | -0.0116
AGTAGCGG | 0.0573
CGAAACGC | -0.157
GGGTCGAA | 0.0379
ATACCGGA | 0.222
CGCAGAAG | 0.0198
AGATCTCC | -0.0801
AGGCCGGG | -0.13

Sequence | PBM E-score
CAAGTGCG | -0.0664
CGAATACC | 0.0857
AGATCCAA | 0.186
ATTGATCC | -0.0161
TAACGTTA | 0.0661
TCGCGCGA | 0.0435
AGAACTAG | -0.0756
CTGTGCTA | -0.0874
ACGACTGC | -0.179
AAACTCAC | 0.0219
ATAGATTG | -0.00739
CGCCAAAG | 0.0195
GAGCCACA | 0.131
CGTAGGTA | -0.0658
CCCAATCA | 0.108
ATGTGACA | -0.117
CTATCGCA | 0.0478
GCCTTGTA | 0.0885
CCGGCACC | 0.28
CACGCGCG | -0.138
CTTATGCC | -0.184
GCAAGGGC | -0.192
ATCGATTG | -0.0409
AACGCCAG | -0.0702
CATGCCTA | -0.112

Sequence | PBM E-score
CCCTCGCC | -0.083
TTGCCAAA | -0.0737
TACAAACA | 0.145
AACCCTGA | 0.115
CCGCTTAC | -0.0217
GAACATGA | -0.0345
CGAAATTA | 0.0526
ACAAGAAG | 0.415
ATAAGAGG | 0.145
GTGGCAGA | -0.115
ATGTGCCG | -0.205
CATCCCGG | -0.0358
ACCTGTAG | 0.135
AACAGCCT | -0.216
ATCCTGAC | 0.163
ACGTTATC | -0.0893
AGCACTGA | -0.155
GCCACCGA | -0.074
AGACCGAC | -0.083
ACATATGC | -0.148
CGAGTATA | -0.0511
TCTTGCAA | -0.0678
ATATTTTA | 0.207
CGCTAACA | -0.096
TGGAGTAA | 0.0362

Sequence | PBM E-score
CGAAATCC | 0.182
CCCAGGGA | -0.057
AGTTTATA | 0.0439
CCCATAAC | 0.0573
AGGTAAAG | -0.112
AATTACTG | -0.0404
ACTGCGCA | 0.0776
ACAGTTGA | 0.00324
CATGGACC | 0.073
ACCCCATC | -0.0183
ATCAGTAG | -0.124
ATCCGACC | -0.129
ACTTGCGA | -0.0439
AAGTATAT | -0.0728
CCGGACCA | -0.125
ACAAGCCC | -0.28
AAACGTGC | 0.153
CGAATTAA | 0.151
AGCTTCCG | 0.433
CCATGTCG | -0.0768
ATGGCGTC | 0.319
GTATACAC | -0.08
CCTGAACC | -0.0942
ACAGGCAT | 0.241
AGGATCGA | -0.12

Sequence | PBM E-score
AGCCGGAG | 0.273
AGCAAGCG | -0.13
CCTTGGAC | -0.101
GGGGACAC | -0.105
CTTAGTGC | 0.0733
GAAGGCAC | 0.0664
CCATGTCA | -0.0858
GGCAGCCC | 0.324
TGTCCAAA | 0.0386
AAGACCTT | -0.268
GTGTCCGA | 0.116
ATTCCGTC | 0.0616
GTTGCGCA | 0.0108
CTTGGAAA | -0.139
GCTTGTCC | -0.135
ACCAGCCT | 0.0001
CCAGCGAG | -0.128
CCCGCTTC | 0.184
ATCAATTC | -0.243
GTTAAAAA | 0.0131
AAGCCTAC | -0.138
CACCGGGC | 0.0767
AACCCACT | 0.0874
GGGGGTGA | -0.296
AGGAGGAT | -0.0867

Sequence | PBM E-score
TGTAAACA | -0.0469
CATCGCTA | -0.0625
CCGGAAAG | 0.0993
GTAGGTAA | -0.158
TAACCACA | -0.0752
ATAACGCA | -0.0972
CTAATGTA | 0.00048
GAAGAAAC | -0.154
ACAGCTAC | 0.00105
AAACTAAA | 0.066
GCTCGTCA | -0.0675
GGCTAACC | -0.199
CGCATTTC | -0.0203
ACATGTAC | 0.0438
CTCTGACC | -0.22
CTTCTGTC | 0.2
ACGGTCAT | -0.23
CGGGAAAG | -0.168
CACGGAGC | 0.101
GGACGTAA | -0.142
GGGAACTA | -0.0255
CCAAATCA | 0.0691
TGGATCAA | -0.0326
ACGGATGC | 0.183
ACCCATGA | -0.0601

Sequence | PBM E-score
ACCCCCGA | -0.128
GCATACCA | 0.0234
AGTCTGTA | -0.152
ATAGACCC | -0.156
CAGTCGAC | 0.113
ATCGCATC | 0.148
GAGCCCGC | 0.0531
GATGAAGA | -0.0906
GGCTCCAA | 0.21
AGAGTGGC | -0.0394
AGCTCAAT | 0.077
AGTAGAGC | 0.0186
CTTACTCA | -0.238
CCAGCAGG | -0.157
GTGCGGTA | -0.0724
AACCTCTA | 0.174
CTGTTTTC | 0.0702
ACAGGAGC | 0.136
CTGCGCCA | -0.135
AACTTCGC | 0.0855
TGTCCGAA | 0.119
AGGTTGAG | -0.162
